The record followed here is PMC4336329 (PLoS ONE, 2015).

Each structure is given as a SMILES string. Hit rate of the full screen: of about 310,000 compounds, about 2,200 (0.71%) showed an effect of 50% or more. Effects have a minus sign here. The list shows a part of the results.

Sequence of human ether-à-go-go-related gene (hERG) potassium channel (Q12809 whole entry, looked up): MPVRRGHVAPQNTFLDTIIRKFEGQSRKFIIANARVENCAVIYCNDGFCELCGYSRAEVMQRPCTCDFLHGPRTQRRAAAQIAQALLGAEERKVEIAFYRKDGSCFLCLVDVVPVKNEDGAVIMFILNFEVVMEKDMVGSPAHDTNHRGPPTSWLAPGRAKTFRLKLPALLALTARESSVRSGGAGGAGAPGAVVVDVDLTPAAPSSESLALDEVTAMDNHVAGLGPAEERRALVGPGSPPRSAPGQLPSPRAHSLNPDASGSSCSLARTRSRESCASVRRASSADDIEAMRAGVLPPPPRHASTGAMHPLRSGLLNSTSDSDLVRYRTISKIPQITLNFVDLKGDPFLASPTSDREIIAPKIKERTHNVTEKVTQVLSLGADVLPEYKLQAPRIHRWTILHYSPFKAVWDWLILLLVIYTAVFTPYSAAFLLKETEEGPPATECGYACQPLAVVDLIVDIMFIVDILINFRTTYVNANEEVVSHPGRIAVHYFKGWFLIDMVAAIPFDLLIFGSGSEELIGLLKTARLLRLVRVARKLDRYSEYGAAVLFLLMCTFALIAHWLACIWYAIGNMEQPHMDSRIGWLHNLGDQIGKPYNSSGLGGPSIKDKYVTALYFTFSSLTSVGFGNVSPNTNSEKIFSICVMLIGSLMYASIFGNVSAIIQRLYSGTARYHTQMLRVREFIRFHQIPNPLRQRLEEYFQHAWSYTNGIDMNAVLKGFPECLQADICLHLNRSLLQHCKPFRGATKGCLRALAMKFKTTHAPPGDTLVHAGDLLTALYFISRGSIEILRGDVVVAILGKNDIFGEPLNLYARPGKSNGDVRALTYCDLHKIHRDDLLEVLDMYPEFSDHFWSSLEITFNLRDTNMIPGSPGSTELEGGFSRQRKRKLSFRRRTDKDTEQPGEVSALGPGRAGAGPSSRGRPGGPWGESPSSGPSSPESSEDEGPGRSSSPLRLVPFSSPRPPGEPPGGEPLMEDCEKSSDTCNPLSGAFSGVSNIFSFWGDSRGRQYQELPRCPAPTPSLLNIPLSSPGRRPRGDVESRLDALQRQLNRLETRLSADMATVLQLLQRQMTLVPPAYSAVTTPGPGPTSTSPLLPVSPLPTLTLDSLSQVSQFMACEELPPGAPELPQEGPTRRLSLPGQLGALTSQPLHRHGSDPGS

The assay has as its target human ether-à-go-go-related gene (hERG) potassium channel (human, UniProt Q12809). Briefly: primary screen, population patch clamp on CHO cells stably expressing hERG.
For `O=C(CNS(=O)(=O)c1ccc(F)c(Cl)c1)NCCc1ccccc1`, the “hERG current change (%, negative = inhibition) at 1uM” value amounted to 12.2%.

For the compound `O=C(CC1C(=O)NCCN1Cc1ccoc1)NCCc1ccc(Cl)cc1` (stereo not shown), the “hERG current change (%, negative = inhibition) at 1uM” value is listed as -13.3%.

For the compound `CSc1ccccc1NC(=O)C1CC(c2ccccc2Cl)=NO1` (stereo not shown), the “hERG current change (%, negative = inhibition) at 1uM” value is recorded as 14.2%.

As to `CCc1ccc(NC(=O)CSc2ccc(-c3ccco3)nn2)cc1`, the “hERG current change (%, negative = inhibition) at 1uM” value is listed as -6.56%.

Consider `Cc1cnc(C)c(N2CCC(C(=O)NCc3cccs3)CC2)n1`, for which the “hERG current change (%, negative = inhibition) at 1uM” value is on record as 0.946%.

Regarding `Cc1c[nH]c2ccccc12`, the “hERG current change (%, negative = inhibition) at 1uM” value is 13.8%.

With `Cc1ccc(NC(=O)Cn2sc3nc(C)cc(C)c3c2=O)c(Cl)c1`, the “hERG current change (%, negative = inhibition) at 1uM” value is on record as 10.7%.

In the case of `CC(C)(C)c1ccc(C(=O)CS(=O)(=O)c2ccccc2)cc1`, the “hERG current change (%, negative = inhibition) at 1uM” value is reported as -7.9%.

In the case of `CCOC(=O)c1cccc(N2C(N)=NC(N)=NC2(C)C)c1.Cl`, the “hERG current change (%, negative = inhibition) at 1uM” value is 12.7%.

On to `CC1=C(C(=O)Nc2ccccc2)C(c2ccncc2)C(C#N)=C(SCC(=O)NC2CC2)N1` (stereo not shown), for which the “hERG current change (%, negative = inhibition) at 1uM” value was determined as 6.49%.

On to `CCOCc1nnc(NC(=O)c2ccco2)s1`, for which the “hERG current change (%, negative = inhibition) at 1uM” value is -13.2%.

Turning to `COc1ccc(CCNS(=O)(=O)c2cc3c4c(c2)CCN4C(=O)CC3)cc1`, the “hERG current change (%, negative = inhibition) at 1uM” value was -4.07%.

For `Cc1nn(C)cc1C(=O)Nc1ccccc1Br`, the “hERG current change (%, negative = inhibition) at 1uM” value came out at 9.61%.

For `COC(=O)c1ccccc1Nc1cc(C)nc2nc(C)nn12`, the “hERG current change (%, negative = inhibition) at 1uM” value is listed as -2.35%.

In the case of `O=C(CSc1nnc(-c2cccs2)o1)N1CCc2ccccc21`, the “hERG current change (%, negative = inhibition) at 1uM” value turned out to be 12.7%.

For the compound `O=C(Nc1ccccc1Br)C1CC(=O)N(c2ccc3c(c2)OCCO3)C1` (stereo not shown), the “hERG current change (%, negative = inhibition) at 1uM” value worked out at 4.45%.

Turning to `COc1ccc(CCNC(=O)c2ccccc2OCc2ccccc2)cc1`, the “hERG current change (%, negative = inhibition) at 1uM” value came out at 7.35%.

Consider `Cc1sc2nc(CN3CCCC3)nc(N3CCC(C(N)=O)CC3)c2c1C`, for which the “hERG current change (%, negative = inhibition) at 1uM” value was found to be 14.1%.

With `NS(=O)(=O)c1ccc(CNC(=O)c2cccc(Oc3ccccc3)c2)cc1`, the “hERG current change (%, negative = inhibition) at 1uM” value is listed as 16.2%.

Turning to `CCN(CC)CCC(c1ccc(OC)cc1)c1c(O)cc(OC)cc1OC` (stereo not shown), the “hERG current change (%, negative = inhibition) at 1uM” value was -25.8%.

On to `Cc1ccc(S(=O)(=O)NCC(c2cccnc2)N2CCc3ccccc32)cc1` (stereo not shown), for which the “hERG current change (%, negative = inhibition) at 1uM” value worked out at 11.8%.

For `O=C(c1ccccc1)c1nn(-c2cccc(Cl)c2)ccc1=O`, the “hERG current change (%, negative = inhibition) at 1uM” value came out at 8.94%.

Take `CCOC(=O)c1cnc(SC)nc1Oc1cccc(NS(=O)(=O)c2ccc(Cl)cc2)c1`: the “hERG current change (%, negative = inhibition) at 1uM” value was -3.09%.

On to `CC(C)(C)c1ccc(C(=O)N/C(=C\c2cccs2)C(=O)N2CCOCC2)cc1`, for which the “hERG current change (%, negative = inhibition) at 1uM” value amounted to 10.5%.

For the compound `COc1cccc(C(=O)Nc2ccccc2C(=O)NCC2CCCO2)c1` (stereo not shown), the “hERG current change (%, negative = inhibition) at 1uM” value worked out at 15%.

Turning to `O=C(CCc1nnc2ccc(NCc3ccccc3)nn12)NC1CCCC1`, the “hERG current change (%, negative = inhibition) at 1uM” value came to 6.21%.

For the compound `COc1ccc(NC(=O)NNC(=O)COc2ccc([N+](=O)[O-])c(C)c2)cc1OC`, the “hERG current change (%, negative = inhibition) at 1uM” value is 11.8%.

With `O=c1cc(CN2CCN(S(=O)(=O)/C=C/c3ccccc3)CC2)c2ccc(O)cc2o1`, the “hERG current change (%, negative = inhibition) at 1uM” value is given as -29.8%.

Regarding `COc1cccc(NC(=O)CN(c2ccccc2OC)S(=O)(=O)c2cccs2)c1`, the “hERG current change (%, negative = inhibition) at 1uM” value worked out at 5.21%.

As to `COc1ccc(N)cc1NC(=O)CN1CCCC1`, the “hERG current change (%, negative = inhibition) at 1uM” value was found to be 14%.

As for `CCNC(=O)CCC(=O)Nc1cc(Cl)ccc1C`, the “hERG current change (%, negative = inhibition) at 1uM” value is 24.2%.

Consider `CC(=O)c1c(N(C)C)ccnc1C(F)(F)F`, for which the “hERG current change (%, negative = inhibition) at 1uM” value came out at 9.56%.

For the compound `COc1ccccc1NC(=S)N(C(C)C)C(C)c1ccccn1` (stereo not shown), the “hERG current change (%, negative = inhibition) at 1uM” value is 5.36%.

For `O=C(Oc1ccc(-c2cnc3ccccc3n2)cc1)c1ccc(Br)o1`, the “hERG current change (%, negative = inhibition) at 1uM” value came out at 4.99%.

Turning to `COc1cc(CN2CCN(C(=O)COc3ccccc3)CC2)cc(OC)c1OC`, the “hERG current change (%, negative = inhibition) at 1uM” value is 41.4%.

For `CCN(CC)c1c(-c2ccccc2)c2cc(C)ccc2[nH]c1=O`, the “hERG current change (%, negative = inhibition) at 1uM” value turned out to be 5.48%.

Take `CCOC(=O)Cn1c2c(c(-c3ccccc3OC)cc1=O)CCCC2`: the “hERG current change (%, negative = inhibition) at 1uM” value is given as 8.29%.

Turning to `COc1ccccc1-c1csc(NC(=O)c2cc(-c3cccs3)nc3ccccc23)n1`, the “hERG current change (%, negative = inhibition) at 1uM” value stood at 14%.

Turning to `Cc1ccc(C(=O)N(CC(=O)NC2CCCC2)c2cccc(F)c2)s1`, the “hERG current change (%, negative = inhibition) at 1uM” value came out at 3.91%.

Consider `CC(C)[C@@H](CO)NC(=O)c1ccc2c3n(nc2c1)-c1ccccc1CO3`, for which the “hERG current change (%, negative = inhibition) at 1uM” value worked out at 10.1%.

Turning to `Cc1ccc(C(=O)c2cnc3cc4c(cc3c2S(=O)(=O)c2ccccc2)OCCO4)cc1`, the “hERG current change (%, negative = inhibition) at 1uM” value is listed as 20.9%.

With `O=C(NCCCCc1ccccc1)C1CC(c2ccc([N+](=O)[O-])cc2)=NO1` (stereo not shown), the “hERG current change (%, negative = inhibition) at 1uM” value is reported as -3.21%.

With `O=C1C2=C(c3ccccc31)[N+](=O)[C@@H]1CCCC[C@@H]1N2[O-]`, the “hERG current change (%, negative = inhibition) at 1uM” value worked out at 12.7%.
